These results are taken from the supplement of paper PMC4967469.

The IC50 comes from the fitted curve, where viability falls to half of the control; a limit (>, <) means that the fit lies beyond the doses tested. The AUC spans the tested range (256-fold, ending at the top dose) of the same fit; it is 1 without any effect and falls as sensitivity rises. The top dose, if marked as inferred, is not printed in the source and was worked back from the curve model.

Compound in the experiment: O=C1NC(=O)/C(=C\c2ccc3nccnc3c2)S1 [AS605240]
Kind of experiment: Viability of human cancer cell lines after 72 h of drug (GDSC screen). The settings on record: top dose inferred. On the procedure:
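Human cancer cell lines in 384-well plates, medium with 10% serum, drug for 72 h over a 256-fold dose range (nine 2-fold or five 4-fold steps up to the top dose). Adherent lines were fixed and stained with the nucleic acid dye Syto60, suspension lines read with resazurin; signal relative to control wells, capped at 0 and 100%. One two-parameter sigmoid per drug and line, fitted in a mixed model over all curves with the slope shared within a line.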
For the cell line “RT-112 (bladder, adherent, top dose 20 µM)”, the AUC came out at 0.864 and the concentration for half-maximal inhibition (IC50) is 19.8 µM.
For the cell line “RVH-421 (melanoma, adherent, top dose 20 µM)”, the AUC came out at 0.661 and the IC50 was determined as 4.13 µM.
For “RXF393 (kidney, adherent, top dose 20 µM)” the same measures were 0.978 and > 20 µM.
As to “Raji (Burkitt lymphoma, suspension, top dose 20 µM)”, the AUC came to 0.899 and the IC50 is > 20 µM.
For “Ramos-2G6-4C10 (Burkitt lymphoma, suspension, top dose 20 µM)” the same measures were 0.885 and 16.4 µM.
For “SAS (head and neck, adherent, top dose 20 µM)”, in that order: 0.78 and 9.19 µM.
Turning to “SAT (head and neck, adherent, top dose 20 µM)”, the AUC is 0.772 and the half-inhibitory concentration (IC50) worked out at 12.4 µM.
“SBC-1 (small cell lung carcinoma, suspension, top dose 20 µM)”: the AUC is 0.981 and the IC50 was > 20 µM.
For “SBC-3 (small cell lung carcinoma, adherent, top dose 20 µM)”, in that order: 0.878 and 17.1 µM.
For “SBC-5 (small cell lung carcinoma, adherent, top dose 20 µM)”, in that order: 0.952 and > 20 µM.
As to “SCC90 (head and neck, adherent, top dose 20 µM)”, the AUC worked out at 0.668 and the half-maximal inhibitory concentration (IC50) was found to be 4.48 µM.
For “SCC-3 (B-cell lymphoma, suspension, top dose 20 µM)” the same measures were 0.946 and 19.3 µM.
For “SCC-4 (head and neck, adherent, top dose 20 µM)” the same measures were 0.927 and > 20 µM.
On to “SCC-9 (head and neck, adherent, top dose 20 µM)”, for which the AUC is 0.544 and the IC50 stood at 1.7 µM.
For “SCC-15 (head and neck, adherent, top dose 20 µM)” the same measures were 0.656 and 3.93 µM.
Regarding “SCC-25 (head and neck, adherent, top dose 20 µM)”, the AUC stood at 0.817 and the IC50 turned out to be 13.1 µM.
For SCH (stomach, adherent, top dose 20 µM) the same measures were 0.988 and > 20 µM.
For “SF126 (glioma, adherent, top dose 20 µM)” the same measures were 0.904 and > 20 µM.
For “SF268 (glioma, adherent, top dose 20 µM)”, in that order: 0.826 and 13.4 µM.
As for “SF295 (glioma, adherent, top dose 20 µM)”, the AUC came to 0.925 and the IC50 was > 20 µM.
Consider “SF539 (glioma, adherent, top dose 20 µM)”, for which the AUC stood at 0.925 and the concentration for half-maximal inhibition (IC50) was > 20 µM.
For “SH-4 (melanoma, adherent, top dose 20 µM)”, in that order: 0.384 and 0.505 µM.
For “SHP-77 (small cell lung carcinoma, semi-adherent, top dose 20 µM)” the same measures were 0.843 and 12 µM.
For “SIG-M5 (acute myeloid leukaemia, suspension, top dose 20 µM)”, the AUC is 0.014 and the IC50 was < 0.0781 µM.
For “SIMA (neuroblastoma, adherent, top dose 20 µM)” the same measures were 0.978 and > 20 µM.
For SISO (cervix, adherent, top dose 20 µM) the same measures were 0.971 and > 20 µM.
As for “SJRH30 (rhabdomyosarcoma, adherent, top dose 20 µM)”, the AUC is 0.96 and the IC50 is > 20 µM.
In the case of SJSA-1 (bone, adherent, top dose 20 µM), the AUC was 0.831 and the concentration for half-maximal inhibition (IC50) was found to be 15 µM.
For “SK-CO-1 (large intestine, adherent, top dose 20 µM)” the same measures were 0.989 and > 20 µM.
“SK-ES-1 (Ewing sarcoma, semi-adherent, top dose 20 µM)”: the AUC stood at 0.849 and the IC50 stood at 16.6 µM.
Consider “SK-GT-4 (oesophagus, adherent, top dose 20 µM)”, for which the AUC turned out to be 0.824 and the IC50 was found to be 15.9 µM.
“SK-HEP-1 (liver, adherent, top dose 20 µM)”: the AUC was found to be 0.988 and the IC50 is > 20 µM.
As for “SK-LMS-1 (soft tissue, adherent, top dose 20 µM)”, the AUC was determined as 0.687 and the IC50 stood at 4.06 µM.
Regarding “SK-LU-1 (lung adenocarcinoma, adherent, top dose 20 µM)”, the AUC was found to be 0.814 and the IC50 was 14.7 µM.
For “SK-MEL-1 (melanoma, suspension, top dose 20 µM)”, in that order: 0.545 and 1.63 µM.
For “SK-MEL-2 (melanoma, adherent, top dose 20 µM)”, in that order: 0.946 and > 20 µM.
For “SK-MEL-3 (melanoma, adherent, top dose 20 µM)” the same measures were 0.848 and 18.6 µM.
As for “SK-MEL-5 (melanoma, adherent, top dose 20 µM)”, the AUC was 0.862 and the IC50 is > 20 µM.
Consider “SK-MEL-28 (melanoma, adherent, top dose 20 µM)”, for which the AUC amounted to 0.738 and the IC50 is 5.88 µM.
For the cell line “SK-MEL-30 (melanoma, adherent, top dose 20 µM)”, the AUC worked out at 0.258 and the IC50 was found to be 0.242 µM.
Turning to “SK-MES-1 (lung squamous cell carcinoma, adherent, top dose 20 µM)”, the AUC was determined as 0.67 and the IC50 worked out at 3.89 µM.
Take “SK-MG-1 (glioma, adherent, top dose 20 µM)”: the AUC was 0.987 and the IC50 was > 20 µM.
For “SK-MM-2 (myeloma, suspension, top dose 20 µM)” the same measures were 0.867 and 19.5 µM.
For “SK-N-AS (neuroblastoma, adherent, top dose 20 µM)”, in that order: 0.218 and 0.161 µM.
For “SK-N-DZ (neuroblastoma, adherent, top dose 20 µM)” the same measures were 0.944 and > 20 µM.
In the case of “SK-N-FI (neuroblastoma, adherent, top dose 20 µM)”, the AUC came to 0.887 and the IC50 is > 20 µM.
“SK-N-SH (neuroblastoma, adherent, top dose 20 µM)”: the AUC worked out at 0.823 and the half-maximal inhibitory concentration (IC50) turned out to be 11.6 µM.
For “SK-OV-3 (ovary, adherent, top dose 20 µM)”, in that order: 0.861 and > 20 µM.
For “SK-PN-DW (Ewing sarcoma, adherent, top dose 20 µM)” the same measures were 0.924 and > 20 µM.
Turning to “SK-UT-1 (soft tissue, adherent, top dose 20 µM)”, the AUC was determined as 0.976 and the IC50 is > 20 µM.
In the case of “SKG-IIIa (cervix, adherent, top dose 20 µM)”, the AUC was 0.981 and the half-maximal inhibitory concentration (IC50) was > 20 µM.
For SKN (uterus, adherent, top dose 20 µM) the same measures were 0.98 and > 20 µM.
On to “SKN-3 (head and neck, adherent, top dose 20 µM)”, for which the AUC worked out at 0.865 and the IC50 was > 20 µM.
For “SLVL (B-cell lymphoma, suspension, top dose 20 µM)” the same measures were 0.643 and 3.18 µM.
As to “SN12C (kidney, adherent, top dose 20 µM)”, the AUC came out at 0.958 and the IC50 is > 20 µM.
As to “SNB75 (glioma, adherent, top dose 20 µM)”, the AUC was 0.931 and the IC50 is > 20 µM.
For “SNG-M (endometrium, adherent, top dose 20 µM)” the same measures were 0.884 and > 20 µM.
For “SNU-61 (large intestine, adherent, top dose 20 µM)”, in that order: 0.466 and 0.98 µM.
Turning to “SNU-81 (large intestine, adherent, top dose 20 µM)”, the AUC amounted to 0.605 and the IC50 is 2.69 µM.
As for “SNU-175 (large intestine, suspension, top dose 20 µM)”, the AUC worked out at 0.87 and the IC50 came out at 16.7 µM.
For “SNU-182 (liver, adherent, top dose 10.24 µM)”, the AUC amounted to 0.735 and the IC50 amounted to 3.11 µM.
On to “SNU-387 (liver, adherent, top dose 20 µM)”, for which the AUC was 0.572 and the IC50 was 2.02 µM.
Regarding “SNU-398 (liver, adherent, top dose 20 µM)”, the AUC was found to be 0.846 and the IC50 was 15.4 µM.
Take “SNU-407 (large intestine, adherent, top dose 20 µM)”: the AUC turned out to be 0.667 and the concentration for half-maximal inhibition (IC50) came to 3.96 µM.
On to “SNU-423 (liver, adherent, top dose 20 µM)”, for which the AUC turned out to be 0.69 and the IC50 amounted to 4.72 µM.
As for “SNU-449 (liver, adherent, top dose 20 µM)”, the AUC worked out at 0.764 and the IC50 is 7.92 µM.
For “SNU-475 (liver, adherent, top dose 20 µM)”, in that order: 0.956 and > 20 µM.
For “SNU-1040 (large intestine, adherent, top dose 20 µM)” the same measures were 0.717 and 6.45 µM.
